# Results from the antibiotic and cytotoxicity screens of Wong et al. (2023).
# This is one part of the list.
# Columns and labels:
# [1] = tested on: HSkMC (human skeletal muscle cells); assay: cytotoxicity call (relative viability < 0.9); conditions: 10 µM
# [2] = tested on: HepG2; assay: cytotoxicity call (relative viability < 0.9); conditions: 10 µM
# [3] = tested on: S. aureus RN4220; assay: growth inhibition call (relative growth <= 0.2); conditions: 50 µM
SMILES,cytotoxicity call [1],cytotoxicity call [2],growth inhibition call [3]
C[C@H](CO)N1C[C@H](C)[C@@H](CN(C)S(=O)(=O)c2cccs2)Oc2c(NS(=O)(=O)c3ccc(F)cc3)cccc2C1=O,inactive,inactive,inactive
CCN1CCCC(OC(=O)C(c2ccccc2)c2ccccc2)C1.Cl (stereo unspecified),inactive,inactive,inactive
N#C[C@@H]1[C@H](c2ccc(C#Cc3ccccn3)cc2)[C@@H](CO)N1C(=O)CN1CCOCC1,inactive,inactive,inactive
C[C@H]1CCCCO[C@H](CN(C)Cc2ccccc2)[C@@H](C)CN([C@@H](C)CO)C(=O)c2cc(NC(=O)C3CCCCC3)ccc2O1,inactive,inactive,inactive
Cc1ccc(S(=O)(=O)Nc2ccc3c(c2)C(=O)N([C@H](C)CO)C[C@H](C)[C@@H](CN(C)CC2CC2)O3)cc1,inactive,inactive,inactive
Cc1noc(C)c1NC(=O)N(C)C[C@H]1Oc2c(NC(=O)Nc3ccc(C(F)(F)F)cc3)cccc2C(=O)N([C@H](C)CO)C[C@@H]1C,inactive,inactive,inactive
COc1ccc(CN(C)C[C@@H]2Oc3ccc(NC(=O)Cn4cnnn4)cc3CC(=O)N([C@H](C)CO)C[C@H]2C)cc1,inactive,inactive,inactive
C[C@H]1CN([C@@H](C)CO)C(=O)c2cc(C#CC3(O)CCCC3)cnc2O[C@@H]1CN(C)S(=O)(=O)c1cccc(F)c1,inactive,inactive,inactive
C[C@@H]1CN([C@@H](C)CO)S(=O)(=O)c2ccc(C#Cc3ccccc3)cc2O[C@H]1CN(C)C(=O)Cc1ccccn1,inactive,inactive,inactive
C[C@H](CO)N1C[C@H](C)[C@H](CN(C)CC2CCCCC2)Oc2ccc(NC(=O)Nc3ccc(C(F)(F)F)cc3)cc2CC1=O,active,active,inactive
C[C@@H]1CN([C@@H](C)CO)C(=O)c2cc(NC(=O)CCN3CCOCC3)ccc2O[C@H]1CN(C)C(=O)Nc1ccc2c(c1)OCO2,inactive,inactive,inactive
O=C(Nc1cccc2cccnc12)[C@@H]1[C@H](c2ccc(Br)cc2)CC(=O)N1c1ccc(C(F)(F)F)cc1,inactive,inactive,inactive
O=C(C[C@H]1C[C@@H]2c3cc(NC(=O)C4CCOCC4)ccc3O[C@@H]2[C@H](CO)O1)NCc1ccc(Cl)cc1,inactive,inactive,inactive
CN(C)CCCNC(=O)C[C@H]1CC[C@H]2[C@@H](COC[C@@H](O)CN2S(=O)(=O)c2ccccc2)O1,inactive,inactive,inactive
C=CCOC(=O)[C@@H]1[C@H]2C(=O)O[C@H](c3ccccc3)[C@H](c3ccccc3)N2[C@H](c2ccc(OCCOC(=O)[C@H]3C[C@H]4C(=O)N[C@@H](Cc5ccccc5)C(=O)N4[C@H]3c3ccc(O)cc3)cc2)[C@@]12C(=O)Nc1ccc(I)cc12,inactive,inactive,inactive
Cc1noc(C)c1S(=O)(=O)Nc1ccc2c(c1)CC(=O)N([C@H](C)CO)C[C@@H](C)[C@@H](CN(C)Cc1ccncc1)O2,inactive,inactive,inactive
C[C@H](CO)N1C[C@H](C)[C@@H](CN(C)Cc2cccc(C(F)(F)F)c2)OCc2ccccc2-c2c(n(C)c3ccccc23)C1=O,inactive,inactive,inactive
Cn1cnc(S(=O)(=O)N[C@@H]2CC[C@@H](CC(=O)N3CCN(c4ccccc4)CC3)O[C@H]2CO)c1,inactive,inactive,inactive
Cc1ccc(S(=O)(=O)N[C@H]2CC[C@H](CC(=O)NCc3ccc(Cl)c(Cl)c3)O[C@H]2CO)cc1,inactive,inactive,inactive
C[C@@H]1CN([C@@H](C)CO)C(=O)c2cccc(NS(=O)(=O)c3cccs3)c2O[C@@H]1CN(C)S(=O)(=O)c1ccc(F)cc1,inactive,inactive,inactive
O=C(Cn1cc([N+](=O)[O-])cn1)n1cccn1,inactive,inactive,inactive
C[C@H](CO)N1C[C@H](C)[C@@H](CN(C)C(=O)Nc2ccccc2)Oc2c(NC(=O)Nc3cccc4ccccc34)cccc2C1=O,inactive,inactive,inactive
C[C@H](CO)N1C[C@H](C)[C@H](CN(C)C(=O)NC2CCCCC2)Oc2ccc(NC(=O)Cn3cnnn3)cc2CC1=O,inactive,inactive,inactive
COc1ccc2c3c(n(c2c1)C)[C@@H](CO)N(CC1CCOCC1)C[C@]13CCN(CC1)C(=O)c1cnccn1,inactive,inactive,inactive
C=CCN1C(=O)[C@]2(O[C@H](CCn3cc([C@H](O)c4ccccc4)nn3)[C@@H]([Si](C)(C)c3ccc(OC)cc3)[C@@H]2C)c2cc(N3CCOC3=O)ccc21,inactive,inactive,inactive
C[C@@H]1CCCCO[C@@H](CN(C)C(=O)Nc2ccccc2)[C@@H](C)CN([C@H](C)CO)C(=O)c2cc(NC(=O)CCCCCC(=O)Nc3ccccc3N)ccc2O1,inactive,inactive,inactive
CCCN(C)C[C@@H]1OCCCC[C@@H](C)Oc2ccc(NS(C)(=O)=O)cc2C(=O)N([C@H](C)CO)C[C@@H]1C,inactive,inactive,inactive
